Source: PubChem BioAssay AID1460 (National Center for Advancing Translational Sciences (NCATS), 2008)
Screen size: about 270,000 compounds; about 5,800 (2.1%) were called active. The inconclusive results got no clear call from the source; some entries with a clear call stand among them for comparison. Calls come from the whole dose curve; as a rule, active = well fitted inhibition curve with a large enough effect; inconclusive = small, poorly fitted or top-dose-only effect; inactive = flat fitted curve, though single readings scatter. A potency beside an inconclusive call is a rough fit, not a confirmed value.

Molecular target: Microtubule-associated protein tau (Homo sapiens) (UniProt P10636)
Assay: qHTS for Inhibitors of Tau Fibril Formation, Thioflavin T Binding; note: nearly all actives have a fitted effect of over 55% in size
Details: recombinant tau K18 P301L (four-repeat tau fragment), heparin-induced fibrillization, ThT fluorescence; series mostly up to 57.4 µM; activity, negative = inhibition: at the top concentration
How it was run: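 In this qHTS, human K18 P301L tau is incubated with compound and heparin for 6 hr at 37 C, and Thioflavin T fluorescence then reports fibril load.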
% is set by controls: 0 for no effect and ±100 for the full control effect; potency is the fitted concentration of half-maximal effect; tags give direction and shape of the fitted curve.

Sequence of UniProt P10636 (P10636 whole entry, looked up): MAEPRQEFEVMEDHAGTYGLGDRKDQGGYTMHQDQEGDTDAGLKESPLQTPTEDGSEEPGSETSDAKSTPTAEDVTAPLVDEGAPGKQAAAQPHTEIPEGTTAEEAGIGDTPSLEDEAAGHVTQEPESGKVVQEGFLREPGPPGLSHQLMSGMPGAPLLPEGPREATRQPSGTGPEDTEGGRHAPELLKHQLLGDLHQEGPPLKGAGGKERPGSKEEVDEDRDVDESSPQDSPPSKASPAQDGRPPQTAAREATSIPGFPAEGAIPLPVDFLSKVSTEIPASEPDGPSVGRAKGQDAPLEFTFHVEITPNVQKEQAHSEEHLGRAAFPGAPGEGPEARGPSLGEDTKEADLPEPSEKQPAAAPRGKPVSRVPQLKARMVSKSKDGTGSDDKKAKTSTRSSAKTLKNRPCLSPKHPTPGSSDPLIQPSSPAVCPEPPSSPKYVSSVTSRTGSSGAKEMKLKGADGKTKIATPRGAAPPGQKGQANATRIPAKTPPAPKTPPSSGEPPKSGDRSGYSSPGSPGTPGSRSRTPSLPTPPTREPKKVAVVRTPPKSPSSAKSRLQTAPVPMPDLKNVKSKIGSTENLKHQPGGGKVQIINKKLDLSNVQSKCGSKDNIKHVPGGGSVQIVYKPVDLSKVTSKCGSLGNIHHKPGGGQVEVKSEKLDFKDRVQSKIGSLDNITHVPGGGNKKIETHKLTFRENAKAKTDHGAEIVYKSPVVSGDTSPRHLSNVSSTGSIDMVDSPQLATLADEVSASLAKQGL

Compound | Potency | activity, negative = inhibition
Cc1nc2ccc(NC(=O)c3ccc(S(=O)(=O)N(C)c4ccccc4)cc3)cc2s1 | inconclusive: 10 µM [activator, partial curve, poor fit] | 
Cc1ccc(S(=O)(=O)CC#CCOC(=O)c2ccc([N+](=O)[O-])cc2)cc1 | inconclusive: 28.2 µM [inhibitor, partial curve] | 
COc1ccc(-c2cc(C(=O)N3CCN(c4ccccc4)CC3)no2)cc1 | inconclusive: 1.58 µM [inhibitor, full curve] | 
CCCCN(CC)c1nc(-c2ccccc2F)nc2ccccc12 |  | inactive: -11.7%
Cc1cc(NCc2ccccn2)n2ncc(-c3ccc(Cl)cc3)c2n1 | inconclusive: 3.55 µM [inhibitor, full curve] | 
COc1ccc(C(=O)n2c(SC)nc3cc4c(cc32)OCCO4)cc1 | inconclusive: 25.1 µM [inhibitor, partial curve] | 
Nc1ccccc1SCc1ccccc1Cl |  | inactive: -13.3%
N#Cc1c(-c2ccco2)cc(-c2ccccn2)nc1N | inconclusive: 17.8 µM [inhibitor, partial curve] | 
COC(=O)c1ccsc1NC(=O)CN1CCN(c2ccc(F)cc2)CC1 | inconclusive: 17.8 µM [inhibitor, partial curve] | 
COc1cccc(-c2cc(=O)c3cc(NC(=O)c4ccc(C)cc4)ccc3[nH]2)c1 | inconclusive: 0.708 µM [inhibitor, full curve] | 
O=[N+]([O-])c1ccc(Sc2cccc3cccnc23)cc1 | inconclusive: 20 µM [inhibitor, single point] | 
COc1cccc(NC(=O)Nc2nnc(N3C(C)CCCC3C)s2)c1 (configuration not stated) | inconclusive: 7.94 µM [inhibitor, full curve, poor fit] | 
CCCc1c(OCC(O)COc2ccc3c(=O)cc(C(=O)O)oc3c2CCC)ccc(C(C)=O)c1O (configuration not stated) | inconclusive: 28.2 µM [inhibitor, partial curve, poor fit] | 
C=Cc1ccc(Cn2c(=O)n(-c3cccc(Cl)c3)c(=O)c3c4c(sc32)CN(C(C)=O)CC4)cc1 | inconclusive: 20 µM [activator, partial curve, poor fit] | 
Brc1c(CSc2nncn2-c2ccccc2)nc2sccn12 |  | inactive: 14.4%
Cc1cc(/C=C2/SC(=S)N(c3ccc([N+](=O)[O-])cc3)C2=O)c(C)n1-c1cccnc1 | inconclusive: 5.01 µM [inhibitor, partial curve] | 
CCOC(=O)C1CCN(c2ccc(C(N)=O)cc2[N+](=O)[O-])CC1 | inconclusive: 12.6 µM [inhibitor, partial curve] | 
C=CCn1c(-c2ccc(N)cc2)nc2ccccc21 | inconclusive: 17.8 µM [inhibitor, partial curve, poor fit] | 
CC(=O)c1ccc(NC2=C(N3CCOCC3)C(=O)c3ccccc3C2=O)cc1 | inconclusive: 25.1 µM [inhibitor, partial curve] | 
COc1ccc(CNc2nc(-c3ccoc3)nc3ccccc23)c(OC)c1 | inconclusive: 25.1 µM [inhibitor, partial curve, poor fit] | 
OC(COc1ccc2c(c1)OCO2)CN1CCN(c2ccc(F)cc2)CC1 (configuration not stated) | inconclusive: 31.6 µM [inhibitor, partial curve] | 
CCNC(=S)N1CCC(NC(=O)c2ccco2)CC1 |  | inactive: -4.39%
COc1ccc(C(=O)Nc2nc(-c3ccc(OC)cc3)c(-c3ccc([N+](=O)[O-])cc3)s2)cc1 | inconclusive: 3.16 µM [inhibitor, full curve] | 

Compound | Potency | activity, negative = inhibition
O=C(Nc1cccc(Cl)c1)c1cc(N=Nc2ccc([N+](=O)[O-])cc2Cl)ccc1O | active: 0.891 µM | 
Cc1ccc(Nc2nc(COC(=O)COc3ccc(C=O)cc3)cs2)cc1 | inconclusive: 17.8 µM [inhibitor, partial curve] | 
Cc1ccc(CSC2=Nc3ccccc3C3=NC(CC(=O)NCc4ccc5c(c4)OCO5)C(=O)N23)cc1 (configuration not stated) | inconclusive: 25.1 µM [inhibitor, single point] | 
Cc1ccc(COc2ccc(C(=O)NN)cc2)cc1 | inconclusive: 15.8 µM [inhibitor, partial curve] | 
COc1ccc(-c2n[nH]c3c2cnc2cc(OC)c(OC)cc23)cc1 |  | inactive: -15.4%
COc1ccc(-c2csc(Nc3ccccc3)[n+]2Cc2ccccc2)cc1 |  | inactive: -12.6%
CN(C)c1ccc(NC(=S)N2CCN(c3ncc(C(F)(F)F)cc3Cl)CC2)cc1 | inconclusive: 3.98 µM [inhibitor, full curve] | 
Oc1ccccc1-c1nc(N2CCN(Cc3ccccc3)CC2)c2ccccc2n1 | inconclusive: 3.16 µM [inhibitor, partial curve, poor fit] | 
CCc1c2c(nc3cccc(SC)c13)COC2 | inconclusive: 20 µM [inhibitor, partial curve] | 
C=C(C)CNC(=S)NNC(=O)c1cc(C)oc1C |  | inactive: -5.55%
CO[C@H]1C([C@@]2(C)O[C@@H]2CC=C(C)C)[C@]2(CC[C@H]1OC(=O)/C=C/C=C/C=C/C=C/C(=O)O)CO2 (some centres not stated) | inconclusive: 17.8 µM [inhibitor, partial curve] | 
Cc1ccc(Nc2nnc(SCc3ccccc3)s2)cc1 |  | inactive: -9.63%
COc1ccc(-c2cc3nc4c(c(N5CCC6(CC5)OCCO6)n3n2)CCC4)cc1 | inconclusive: 39.8 µM [inhibitor, partial curve] | 
CC12CN(Cc3ccccc3)CC(C)(CN(Cc3ccccc3)C1)C2=O |  | inactive: -3.05%
COc1ccc(CC(=O)Nc2ccc(N3CCOCC3)cc2)cc1OC | inconclusive: 14.1 µM [inhibitor, partial curve, poor fit] | 
Cc1cc(C)cc(C(=O)NC(=S)Nc2ccc(Cc3ccncc3)cc2)c1 | inconclusive: 10 µM [inhibitor, partial curve] | 
COC(c1ccccc1)c1nnc(CCC(=O)NCc2cccc(-n3cccn3)c2)o1 (configuration not stated) |  | inactive: -5.73%
Cc1nc(S/C(=C/c2ccc(-c3cc(Cl)ccc3C)o2)C(=O)O)n[nH]1 | active: 11.2 µM | 
Cc1ccc(NC(=O)C2CCCN(S(=O)(=O)c3ccc4c(c3)oc(=O)n4C)C2)nc1 (configuration not stated) |  | inactive: -3.2%
COc1ccc(C(=O)Nc2nc3n(n2)C(c2ccc(Cl)cc2)C=C(c2ccccc2)N3)cc1OC (configuration not stated) | inconclusive: 17.8 µM [inhibitor, single point] | 
Cc1ccc(NC(=O)c2ccc(NCC3CCCO3)c([N+](=O)[O-])c2)cc1Cl (configuration not stated) | inconclusive: 3.98 µM [inhibitor, full curve, poor fit] | 
Cc1ccc([N+](=O)[O-])cc1N=Nc1c(-c2ccc([N+](=O)[O-])cc2)[nH]n(C(N)=S)c1=O | inconclusive: 3.16 µM [inhibitor, partial curve] | 
O=c1[nH]c(SCc2ccccc2)nc2c1sc1ccccc12 |  | inactive: 8.89%

Compound | Potency | activity, negative = inhibition
COc1cc(/C=N/Nc2nn3cnnc3c3ccccc23)cc(OC)c1OC | inconclusive: 14.1 µM [inhibitor, partial curve] | 
COc1ccc(-n2c(=O)c3ccccc3n(Cc3ccccc3Cl)c2=O)cc1 | inconclusive: 44.7 µM [inhibitor, single point] | 
Cc1cc(O)c(/C=N/Nc2ccc(Cl)cc2)c(=O)o1 | inconclusive: 10 µM [inhibitor, partial curve] | 
N#C/C(=C/c1ccncc1)c1nc2ccccc2s1 | inconclusive: 10 µM [inhibitor, partial curve] | 
Fc1ccc(-c2nn(-c3ccc(Cl)cc3)c3c2cnc2ccc(F)cc23)cc1 |  | inactive: 2.11%
Cc1ccc2c(c1)NC(=O)C(CC(=O)NCCCN1CCc3ccccc3C1)O2 (configuration not stated) | inconclusive: 14.1 µM [inhibitor, single point] | 
O=C(Nc1ccc([N+](=O)[O-])cn1)c1cc(-c2cccc(Br)c2)nc2ccccc12 | inconclusive: 39.8 µM [inhibitor, single point] | 
CC(C)Oc1ccc(Nc2ncnc3ccccc23)cc1 | inconclusive: 17.8 µM [inhibitor, single point] | 
Cc1[nH]c2ccccc2c1Cc1nnc(SCc2ccccc2)o1 | inconclusive: 15.8 µM [inhibitor, partial curve] | 
COc1cc([N+](=O)[O-])ccc1NC(=O)Nc1ccc2c(c1)OCCO2 | active: 12.6 µM | 
CCCCNC(=O)Nc1cc(C(=O)OC)ccc1Cl | inconclusive: 39.8 µM [inhibitor, single point] | 
O=C(CSc1nccc(=O)[nH]1)Nc1ccc(Br)c(Cl)c1 | inconclusive: 12.6 µM [activator, partial curve, poor fit] | 
COc1cc2c(cc1NC(=O)COC(=O)[C@@H](NC(=O)c1ccccc1)C(C)C)oc1ccccc12 | inconclusive: 10 µM [inhibitor, partial curve] | 
COc1cccc(C(=O)NNC(=O)C2CC(C)=C(C)CC2C(=O)O)c1 (configuration not stated) |  | inactive: 0.371%
Cc1ccccc1-c1noc(-c2nnn(-c3ccccc3C)c2N)n1 |  | inactive: -10.9%
Cc1ccc(Nc2cc(C)nn2-c2nc(C)cc(=O)[nH]2)cc1 | inconclusive: 25.1 µM [inhibitor, partial curve] | 
COc1cc([C@@H]2[C@H]3CN(C)CC=C3C(C#N)=C(N)C2(C#N)C#N)cc2c1OCO2 | inconclusive: 17.8 µM [inhibitor, partial curve] | 
O=C(OCc1nc2ccccc2s1)c1ccc(Br)s1 | inconclusive: 14.1 µM [inhibitor, partial curve] | 
Cc1ccc(C2=CSC3=NCCN23)c(C)c1 |  | inactive: -3.01%
Cc1ccc(NC(=S)N/N=C/c2c(C)nn(-c3ccccc3)c2N2CCCC2)cc1 |  | inactive: -6.54%
O=[N+]([O-])c1ccc(-c2ccc(/C=N/c3c(-c4ccco4)nc4ccccn34)o2)c(Cl)c1 | active: 2 µM | 
